Results reported in article PMC4336329 (PLoS ONE, 2015).
Screen size: about 310,000 compounds; about 14,000 (4.5%) showed an effect of 50% or more. Effects have a minus sign here. The list shows a part of the results. Where a SMILES comes first, the peptide text is derived from it. The star is where a group is joined. Boc = CC(C)(C)OC(=O)*

What follows are compounds tested against human ether-à-go-go-related gene (hERG) potassium channel (human, UniProt Q12809) (assay: primary screen, population patch clamp on CHO cells stably expressing hERG).
human ether-à-go-go-related gene (hERG) potassium channel, sequence (Q12809 whole entry, looked up): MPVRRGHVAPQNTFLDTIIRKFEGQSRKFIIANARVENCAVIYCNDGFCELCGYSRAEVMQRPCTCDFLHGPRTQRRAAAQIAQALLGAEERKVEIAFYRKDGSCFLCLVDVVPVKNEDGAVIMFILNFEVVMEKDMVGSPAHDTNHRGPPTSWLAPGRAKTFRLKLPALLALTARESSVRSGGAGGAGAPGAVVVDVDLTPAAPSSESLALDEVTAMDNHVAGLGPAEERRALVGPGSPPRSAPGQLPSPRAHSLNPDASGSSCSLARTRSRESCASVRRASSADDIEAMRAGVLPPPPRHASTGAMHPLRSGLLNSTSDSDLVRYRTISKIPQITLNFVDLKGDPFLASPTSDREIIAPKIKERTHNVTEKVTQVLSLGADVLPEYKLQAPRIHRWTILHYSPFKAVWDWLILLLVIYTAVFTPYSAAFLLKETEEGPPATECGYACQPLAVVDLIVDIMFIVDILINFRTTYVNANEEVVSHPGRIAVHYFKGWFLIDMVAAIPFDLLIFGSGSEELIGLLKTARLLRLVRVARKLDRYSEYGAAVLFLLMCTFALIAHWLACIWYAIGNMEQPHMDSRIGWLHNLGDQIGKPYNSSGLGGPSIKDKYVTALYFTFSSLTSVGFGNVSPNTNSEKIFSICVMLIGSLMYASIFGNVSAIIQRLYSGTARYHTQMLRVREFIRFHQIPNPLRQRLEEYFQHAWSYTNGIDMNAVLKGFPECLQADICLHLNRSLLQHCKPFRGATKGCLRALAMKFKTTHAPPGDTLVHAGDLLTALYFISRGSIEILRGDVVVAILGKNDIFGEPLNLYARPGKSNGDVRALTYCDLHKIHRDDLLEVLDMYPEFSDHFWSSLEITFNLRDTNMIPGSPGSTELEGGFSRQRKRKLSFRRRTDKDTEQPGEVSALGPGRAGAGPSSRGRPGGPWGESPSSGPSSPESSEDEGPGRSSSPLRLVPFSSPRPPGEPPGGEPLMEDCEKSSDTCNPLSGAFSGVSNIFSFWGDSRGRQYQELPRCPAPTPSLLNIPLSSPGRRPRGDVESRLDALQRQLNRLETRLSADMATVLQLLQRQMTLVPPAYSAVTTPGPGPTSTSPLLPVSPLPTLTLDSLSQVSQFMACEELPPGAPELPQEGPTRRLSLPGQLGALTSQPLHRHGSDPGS
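Further: peak tail current of the secondary pulse compared with the same well before compound.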

SMILES	hERG current change (%, negative = inhibition) at 10uM [%]
COc1cc(/C=C/C(=O)Oc2coc(CSc3ncccn3)cc2=O)cc(OC)c1OC	31.1
Cc1ccc(-c2nc(N)sc2CC(=O)OCC(=O)N2C(C)CCCC2C)cc1 (stereo not shown)	-7.22
O=C(NC(=S)NCCc1ccccc1)c1ccccc1F	15.2
Cc1ccc(S(=O)(=O)N(C)C)cc1NC(=O)COC(=O)CCC(=O)c1ccc(F)cc1	-49.1
CCOC(=O)C1CCCN(C(=O)c2cnn3c(C(F)(F)F)cc(-c4ccccc4)nc23)C1 (stereo not shown)	-26.4
CCOP(=O)(OCC)c1nc(-c2ccc(C)cc2)oc1N1CCOCC1	-2.68
COc1cccc(OC)c1C(=O)Nc1cccc(-c2ccc(N3CCOCC3)nn2)c1	17.8
Cc1cc(C)n2nc(C(=O)N(C)C(c3ccccc3)c3ccccc3)nc2n1	-17.4
COCCOC(=O)/C(=C\c1cc(C(C)(C)C)c(O)c(C(C)(C)C)c1)C(C)=O	-19.7
Cc1cc(S(=O)(=O)N2CCN=C2c2ccccc2)c(C)cc1Cl	-8.15
Cc1cccc(C)c1NC(=O)C(c1ccccc1)N1CCOCC1 (stereo not shown)	9.4
COc1ccc(NC(=O)Nc2ccccc2C(N)=O)cc1OC	7.59
COc1ccc(S(=O)(=O)N2CCOC2CNC(=O)C(=O)NCCCN2CCOCC2)cc1OC (stereo not shown)	8.41
COc1ccc(NC(=O)CN2CC(C)OC(C)C2)cc1Cl (stereo not shown)	29.6
Cc1cn(-c2ccccc2)c(C)c1/C=N\Nc1nc(N2CCOCC2)nc(N2CCOCC2)n1	-7.11
Cc1cccc(Nc2ncnc3c2cnn3Cc2ccccc2)c1	4.63
CC(Cc1cccc(C(F)(F)F)c1)NCCOC(=O)c1ccccc1 (stereo not shown)	-21.5
CCN(CC)S(=O)(=O)c1ccc(N2CCCC2)c(NC(=O)Cc2c(F)cccc2Cl)c1	10.3
NC(=O)COC(=O)c1c2c(nc3ccccc13)CCC2	9.85
O=C(CN(Cc1ccc(F)cc1)C(=O)CCC(=O)Nc1ccccn1)NCc1ccco1	-25.9
CCCCOC(=O)c1ccc(NC(=O)CSC2=Nc3ccccc3C3CC=NN23)cc1 (stereo not shown)	15.4
COc1cccc(NC(=O)CN2C(=O)NC(C)(CC(C)C)C2=O)c1 (stereo not shown)	6.03

SMILES	hERG current change (%, negative = inhibition) at 10uM [%]
O=C(CNc1cccc2ccccc12)N/N=C/C=C/c1ccco1	-2.28
CCOC(=O)C1CCN(S(=O)(=O)c2cc(Cl)c(C)cc2OC)CC1	-35.1
CCOCCCN1C(=O)CN(C2CCC(C)CC2)C(=O)C1c1ccc(C)cc1 (stereo not shown)	-31.9
COc1ccc(S(=O)(=O)N2CCC3(CC2)CC(=O)c2ccccc2O3)cc1OC	11.6
COc1ccc(C2=Nn3c(nnc3-c3ccc(OC)cc3)SC2)cc1	-55
COc1ccccc1NC(=O)Nc1nc(CC(=O)Nc2ccc(N(C)C)cc2)cs1	2.98
CCN1CCN(C(=O)C(C)Nc2ccc(OC)cc2OC)CC1 (stereo not shown)	-6.18
Cc1ccccc1C(=O)Nc1nnc(-c2ccco2)s1	17.2
O=C(NCc1ccco1)NC1CCCCC1	-0.279
COc1cccc(NC(=O)c2ccc(CN3CCN(c4ccccc4)CC3)cc2)c1	-48.8
NC(=O)[C@@H]1CCCN1Cc1nc(-c2ccc(C(F)(F)F)cc2)no1	-5.68
COc1ccc(-n2ncc(C(C)NS(=O)(=O)c3cc(F)ccc3C)c2C)cc1 (stereo not shown)	-31.5
CC(C)CC(NC(=O)C(NC(=O)OC(C)(C)C)C(C)C)C(N)=O (stereo not drawn) (Boc-Val-Leu-NH2; configuration not given here)	5.69
C[C@@H]1C(=O)O[C@@H]2[C@H](O)C34[C@H]5C[C@@H](C(C)(C)C)C36[C@H](OC(=O)[C@@H]6O)OC4(C(=O)O5)[C@@]12O (stereo partly shown)	17.7
O=C(NCC1CCCO1)c1ccc(Cl)c(S(=O)(=O)N2CCOCC2)c1 (stereo not shown)	12.7
CCOc1ccc2nc(NC(=O)NC3CCCCC3)sc2c1	34.2
O=C(CN(CC1CCCO1)C(=O)CNS(=O)(=O)c1ccc(F)cc1)NCc1ccco1 (stereo not shown)	8.51
O=C(Nc1ccc(Br)c(C(F)(F)F)c1)c1ccccc1	27.3
CCOc1ccc(N=CNc2ccc(OCC)cc2)cc1	-17.5
Fc1cccc(CCN2C(=S)NC[C@@H]2CC2CCCCC2)c1	11.4
Cc1ccc(C(=O)N(C)CC(=O)Nc2ccc(F)c(F)c2F)o1	11.1
